Reference: the supplement of paper PMC3334620
In all, about 33,000 sequences were measured (“E-score (-0.5 to 0.5)”: median about -0.011, highest 2% from about 0.28 on). Some of the results follow.

biological target: T1, Gcr1 (UniProt P07261); experiment: PBM E-score (8-mer binding enrichment) (E-score (-0.5 to 0.5)); higher = stronger / more preferred TF binding; most listed sequences are background and not binding sites; settings: protein concentration: 100 nM; construct: GST-full length
T1 sequence: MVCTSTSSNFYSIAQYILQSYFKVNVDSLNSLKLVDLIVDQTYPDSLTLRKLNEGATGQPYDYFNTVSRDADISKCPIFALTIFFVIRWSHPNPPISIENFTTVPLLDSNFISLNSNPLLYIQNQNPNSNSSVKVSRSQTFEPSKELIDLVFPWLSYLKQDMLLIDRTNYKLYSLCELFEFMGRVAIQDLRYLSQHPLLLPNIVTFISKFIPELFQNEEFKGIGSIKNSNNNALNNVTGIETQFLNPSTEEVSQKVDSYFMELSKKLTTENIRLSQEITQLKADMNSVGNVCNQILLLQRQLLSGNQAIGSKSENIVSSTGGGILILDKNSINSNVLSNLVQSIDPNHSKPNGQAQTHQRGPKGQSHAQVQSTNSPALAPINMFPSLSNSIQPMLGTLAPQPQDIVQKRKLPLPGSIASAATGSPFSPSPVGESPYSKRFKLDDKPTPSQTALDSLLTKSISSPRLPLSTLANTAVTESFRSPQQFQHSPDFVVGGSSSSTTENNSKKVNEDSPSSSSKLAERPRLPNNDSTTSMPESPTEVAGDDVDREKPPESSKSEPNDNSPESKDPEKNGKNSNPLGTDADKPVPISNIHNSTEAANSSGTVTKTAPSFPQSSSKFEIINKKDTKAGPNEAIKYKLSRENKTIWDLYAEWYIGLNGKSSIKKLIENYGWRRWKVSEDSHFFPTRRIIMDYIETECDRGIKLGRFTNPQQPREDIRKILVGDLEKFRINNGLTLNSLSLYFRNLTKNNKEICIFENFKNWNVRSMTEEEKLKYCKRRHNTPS
Description: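 Universal 'all 10-mer' protein binding microarrays (Agilent AMADID 015681) probed with GST-tagged S. cerevisiae TFs (full-length or DBD) made by in vitro transcription/translation (PURExpress), about 100-200 nM. Bound TF was detected with fluorescent anti-GST. Each ungapped 8-mer (which stands for itself and its reverse complement) is scored by the PBM enrichment score (E-score), a modified Wilcoxon-Mann-Whitney statistic from -0.5 to +0.5, computed with the Universal PBM Analysis Suite. Scale: above 0.35 generally sequence-specific binding.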

| Sequence | PBM E-score |
| --- | --- |
| GCCCTGCC | -0.211 |
| CCCGGCAA | 0.0205 |
| AGGTGAGG | -0.234 |
| CCGGCCGG | -0.0302 |
| CTGAACGC | 0.0642 |
| CAATACGC | -0.0796 |
| AGAAGTCC | -0.0409 |
| ACTACTAG | 0.195 |
| AGGTATTA | -0.00935 |
| TCGGCGAA | -0.0496 |
| GCTTGCCA | -0.156 |
| AGCGCGCT | 0.0779 |
| CTGAAGTC | 0.106 |
| ACTCTAAA | 0.0638 |
| CTACCGCA | -0.134 |
| AAGAGGTG | 0.051 |
| ATTAAGTC | 0.0201 |
| CATAATCG | 0.0132 |
| AATGAAGT | -0.188 |
| TCAAATGA | 0.0254 |
| ATATCGGG | 0.0205 |
| ACGGCGAG | -0.125 |
| GGACTCTA | 0.0953 |
| ACGTGTAG | 0.0676 |
| ACCACGTG | 0.0203 |

| Sequence | PBM E-score |
| --- | --- |
| GCATCCCC | 0.351 |
| GCATACAA | 0.0234 |
| AACGGGAA | 0.132 |
| GCTTGATA | 0.0882 |
| ACCAGCGC | 0.106 |
| AAACATGG | -0.213 |
| ATGCACAA | -0.0233 |
| AGGGCAGC | 0.0608 |
| ATATGATG | 0.024 |
| GTTGTAAA | -0.0263 |
| TCCTAAGA | 0.0241 |
| AGTCACCC | -0.206 |
| CGTCGGTA | -0.15 |
| GAATAAAA | 0.00901 |
| CAACCGGG | 0.173 |
| ATGAATAC | -0.0749 |
| TCGCCCAA | 0.121 |
| CACATGGA | -0.21 |
| TGATTCAA | 0.0833 |
| TGTGATAA | 0.0317 |
| AAGTGCAA | -0.149 |
| ATTATTAA | 0.204 |
| CACGCCGG | -0.15 |
| TGAAAAAA | 0.272 |
| CGTTTGCC | -0.264 |

| Sequence | PBM E-score |
| --- | --- |
| AGATAATG | -0.00607 |
| ATGAGGAC | 0.0341 |
| GCCATCGC | -0.139 |
| TATACTGA | 0.0283 |
| ACAAAGTG | -0.155 |
| CTCATAGA | -0.149 |
| ACGCGCGG | 0.00401 |
| ACAATCGA | -0.0545 |
| TAGCTCAA | 0.104 |
| TACCGTCA | -0.0779 |
| AAAGTTGC | 0.0082 |
| CCTGGCGA | -0.047 |
| ACCGTTTG | -0.054 |
| AGGGGTCC | 0.0751 |
| AGGGCCCC | 0.118 |
| CGCCCAGA | 0.102 |
| TGAGCGCA | -0.0999 |
| TATTTCAA | 0.0319 |
| CCTTAGGA | 0.0836 |
| CAACAGGC | 0.0524 |
| AATCCAGT | 0.141 |
| CGGAGGAA | -0.0935 |
| TGGCAACA | 0.123 |
| ATTGTATA | 0.012 |
| AAGGGGGA | 0.00731 |

| Sequence | PBM E-score |
| --- | --- |
| AGGTCTTG | -0.102 |
| TACGCGAA | 0.194 |
| CATGATGA | -0.0891 |
| AGCATGTG | -0.11 |
| TTGCACAA | -0.147 |
| CGATCATC | -0.0473 |
| AAGGCGGT | 0.00689 |
| AGGCTAGG | -0.291 |
| AATAACTC | -0.011 |
| AATAGTTC | 0.0205 |
| ACCGGTGC | -0.0668 |
| CGCGGAAG | -0.136 |
| GCATTGCC | -0.149 |
| GGAACGTA | -0.0769 |
| GGATCCAA | 0.299 |
| AAGTATCG | 0.0344 |
| CCCAGCCC | -0.0246 |
| CCGCTAAA | 0.0268 |
| CCCTTACC | -0.0472 |
| ACGAACCG | -0.107 |
| AGTGCTGA | -0.0757 |
| ACGGCGGC | -0.00051 |
| ATTAAAGG | 0.112 |
| AGCTCTTG | -0.183 |
| ATTTCCAC | 0.177 |

| Sequence | PBM E-score |
| --- | --- |
| CGGGTACC | 0.137 |
| ATCCGTCC | -0.0828 |
| GAAACTTC | 0.0757 |
| CACCCTTA | -0.118 |
| ACGTCAAA | -0.0464 |
| GTATGATA | -0.119 |
| GCCAGGCA | -0.0277 |
| GACGTACC | -0.17 |
| ACGCTAGG | -0.177 |
| CTTTCGTA | 0.00784 |
| AACAACGC | 0.0407 |
| CGGTCCAG | -0.0408 |
| ATATATGA | 0.0263 |
| AGCCTAAT | 0.00711 |
| AATATTAA | 0.258 |
| AACTAGTC | 0.0429 |
| ATACTGGG | 0.173 |
| AACGATCG | -0.227 |
| ACCCAAGT | -0.0246 |
| AGGAGGAA | 0.181 |
| AACCACCT | 0.124 |
| CGCTGGTA | 0.0497 |
| ACGCCATG | -0.0676 |
| AAGCTTGG | -0.134 |
| ATATCCAT | -0.00061 |

| Sequence | PBM E-score |
| --- | --- |
| AATTGGTC | 0.0638 |
| AGATCTAT | -0.0414 |
| CACGTCAA | -0.156 |
| CAGGAACC | 0.32 |
| CTCTTCCC | -0.26 |
| AGCGTGAC | -0.215 |
| AGATCCAT | -0.23 |
| CAGAGCGC | -0.0969 |
| AAAATCGT | 0.0793 |
| GGAGAACC | 0.00608 |
| AGGCGCGG | -0.14 |
| TAAACTTA | -0.00782 |
| CTGTTTCA | 0.0249 |
| ATGGGAGA | -0.18 |
| GTGCCAAC | -0.0662 |
| GCGAAGCC | 0.1 |
| CCGAAAAG | 0.162 |
| AGGGTCCC | 0.277 |
| ATCCCTGA | 0.0556 |
| ACGTAATG | -0.0746 |
| AGCTTTGG | 0.0729 |
| AAACAGAT | 0.16 |
| GTTCGACA | 0.0702 |
| CAATATCC | -0.0114 |
| AGGGCCAC | -0.243 |

| Sequence | PBM E-score |
| --- | --- |
| AGTGCGGA | 0.115 |
| CCGGCTCC | 0.0887 |
| CTGTCTCA | -0.0202 |
| CACGATAC | 0.0775 |
| GCGTTTTA | 0.00422 |
| CAGCCGAG | 0.0411 |
| CCATTTCC | -0.0631 |
| AATTAAAT | 0.0347 |
| TAGTTGAA | 0.0225 |
| TATAGGCA | 0.167 |
| AAGTACCA | 0.131 |
| AGACTCCA | 0.15 |
| AATAATAA | 0.152 |
| TCACGCCA | -0.00387 |
| GTCCAAGA | 0.149 |
| AAAACAAT | -0.139 |
| CGTCCACC | -0.0259 |
| GGTAAGGA | -0.218 |
| ATTGCTTG | -0.0427 |
| TGAAGCCA | -0.0656 |
| AAGCTGGT | 0.183 |
| CCACGTTC | -0.144 |
